# Assay results as given in the supplement of paper PMC3334620.
# In all, about 33,000 sequences were measured (“E-score (-0.5 to 0.5)”: median about -0.035, highest 2% from about 0.35 on). The list shows a part of the results.
# Biological target: T1, Pdr3 (UniProt P33200)
# T1 sequence: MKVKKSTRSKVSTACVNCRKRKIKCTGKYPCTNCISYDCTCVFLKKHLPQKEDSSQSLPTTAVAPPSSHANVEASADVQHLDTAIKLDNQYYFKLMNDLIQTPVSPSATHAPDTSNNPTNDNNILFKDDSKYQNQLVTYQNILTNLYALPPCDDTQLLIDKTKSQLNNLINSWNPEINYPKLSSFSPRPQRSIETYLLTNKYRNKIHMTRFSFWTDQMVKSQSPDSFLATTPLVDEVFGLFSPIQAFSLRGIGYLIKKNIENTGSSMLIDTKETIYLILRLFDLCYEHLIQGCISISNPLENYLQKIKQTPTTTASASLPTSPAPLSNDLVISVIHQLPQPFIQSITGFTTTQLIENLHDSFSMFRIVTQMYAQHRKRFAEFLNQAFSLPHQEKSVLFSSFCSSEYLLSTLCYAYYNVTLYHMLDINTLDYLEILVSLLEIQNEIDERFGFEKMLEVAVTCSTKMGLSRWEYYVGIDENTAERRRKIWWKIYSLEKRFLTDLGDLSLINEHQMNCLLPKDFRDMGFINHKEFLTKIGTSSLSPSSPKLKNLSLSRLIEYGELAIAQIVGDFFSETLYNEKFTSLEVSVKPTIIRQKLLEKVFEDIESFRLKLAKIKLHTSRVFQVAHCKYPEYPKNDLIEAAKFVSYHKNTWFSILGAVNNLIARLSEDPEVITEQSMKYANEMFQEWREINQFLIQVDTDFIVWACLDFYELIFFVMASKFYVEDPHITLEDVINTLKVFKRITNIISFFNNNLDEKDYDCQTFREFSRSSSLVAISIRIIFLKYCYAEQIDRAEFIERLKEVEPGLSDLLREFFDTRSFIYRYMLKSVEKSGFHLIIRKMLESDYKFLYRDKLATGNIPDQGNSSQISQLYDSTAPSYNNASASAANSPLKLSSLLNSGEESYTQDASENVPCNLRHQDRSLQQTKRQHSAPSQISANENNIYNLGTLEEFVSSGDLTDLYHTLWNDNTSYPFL
# Test: PBM E-score (8-mer binding enrichment) (E-score (-0.5 to 0.5)); higher = stronger / more preferred TF binding; most listed sequences are background and not binding sites
# Conditions: protein concentration: 200 nM; construct: GST-full length
# Procedure, shortened: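 Masliner-normalised scans of fluorescent anti-GST signal were the basis for scoring. That signal came from GST-tagged yeast transcription factors applied at about 100-200 nM to double-stranded universal all-10-mer Agilent arrays on fresh or once-stripped slides. Each ungapped eight-base word, pooled with its reverse complement, received an E-score from the Universal PBM Analysis Suite.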
row,Sequence,PBM E-score
1,ATCCTAAC,-0.121
2,AGGTAAGG,-0.247
3,ACAAATGA,-0.197
4,AGACTACT,-0.173
5,GGACGCCA,0.0768
6,GCCGACCA,0.0918
7,CATAGGGG,-0.0816
8,CGCGTGAA,0.189
9,ATGGTCAG,-0.0886
10,GAACTGGA,0.185
11,TATGAAAA,0.0697
12,AGGATTAA,-0.0781
13,GATAGGCA,-0.202
14,CAAACTCC,0.138
15,TGAGCTAA,-0.15
16,AGAGACAA,-0.226
17,AACATGGT,-0.187
18,GGAGCTAA,-0.0167
19,ATGCTTAG,-0.25
20,AAGAAGCT,-0.125
21,TACCGAAA,0.0817
22,TACACAGA,-0.203
23,CCTTACAC,-0.203
24,AACAAGCG,0.0731
25,GACCATTA,-0.0786

row,Sequence,PBM E-score
1,ACTTACAC,-0.212
2,AGCGCCTG,0.0403
3,CAATGTCG,-0.00468
4,AATGAGTC,-0.0271
5,CTTAGCGA,0.0213
6,GCGTTGCC,0.126
7,AAGCTCGG,0.29
8,ATTGTTCC,0.378
9,AGGCGGAG,0.174
10,AGTCGGCA,0.0345
11,GCGCAGCC,0.0679
12,AGAGATTG,-0.0672
13,AGAGCTGA,-0.15
14,GCGGCAAA,0.184
15,AATCCCCC,-0.0842
16,ATGTAATC,-0.0757
17,AATCGCTG,0.115
18,CGAATGTA,-0.0733
19,CAGCAAGA,-0.0529
20,CGCCATTA,0.113
21,CTGCAAAC,-0.0558
22,AATGAAGC,-0.0906
23,CCCTGTCC,-0.132
24,GACTTGAC,-0.0897
25,CCGTCTTA,-0.122

row,Sequence,PBM E-score
1,ACCGCTTA,-0.221
2,CTCCTAAA,-0.359
3,CAATATTA,-0.0363
4,TAGGAAAA,-0.159
5,CAGTTGCA,-0.171
6,CATGTTAC,-0.101
7,GTAGCAAA,0.00758
8,ATAGCTGA,-0.0602
9,GATTTCCA,0.116
10,AAACCAGG,-0.0534
11,ACCCTCAC,-0.0979
12,GGAAGATA,0.234
13,CGCACCTC,0.044
14,AAGCTAGA,-0.107
15,GTTAATGA,-0.145
16,CGACAGCC,-0.177
17,AAGACATC,-0.192
18,CACGCAGG,-0.0782
19,TAGCGTCA,-0.159
20,CAGCCCCG,0.242
21,CCATAGCC,0.0577
22,CCGGCCGA,0.372
23,CACTCTTC,-0.0419
24,ATCGGCAT,0.175
25,GTCGTGTA,-0.14

row,Sequence,PBM E-score
1,AACCCACG,0.0355
2,ATATAGAT,-0.0476
3,AAAATGTG,0.105
4,CCGTGATA,0.159
5,GAGTGGAC,0.0145
6,GCGATGAC,0.0396
7,AATCCACA,-0.183
8,CCGTCAAC,0.1
9,AGGTTGGG,-0.145
10,CACCCCAG,-0.0866
11,TCACCCCA,0.0393
12,AATATCCA,0.111
13,AGTATGAC,0.0142
14,CATCTTTC,-0.104
15,ACACCCAT,-0.00624
16,GCTAACGA,0.0163
17,AACTTACA,-0.168
18,CATAAATG,-0.285
19,ACTCATCG,-0.0411
20,GACAGGAC,-0.105
21,CGTGTCCC,0.211
22,GGCCAGGA,-0.0954
23,AAGTAAGA,-0.278
24,AAGGCACG,0.107
25,AAATGTCC,-0.0402

row,Sequence,PBM E-score
1,AAATTCCC,0.144
2,AATGGCGT,0.00279
3,GCGCTACA,-0.136
4,GGGGGATA,-0.159
5,GTGAAACA,-0.00843
6,CCCCCAGG,-0.193
7,ATGATTTC,0.117
8,ATCCTGGA,0.0107
9,GGTCCATA,-0.154
10,AGCCAGAC,-0.00493
11,GGCCTAGA,-0.0513
12,AGGTAGTC,-0.214
13,ACTCTGAC,-0.0748
14,CGTAAAAC,-0.0457
15,CGACATTA,0.124
16,GTAGCCTA,-0.389
17,GTAGCGAC,-0.0961
18,GCATTGAA,0.0593
19,AAACTGAT,0.0335
20,GTGCATGA,-0.0649
21,ACCATAGA,-0.00346
22,CGTCGATC,0.126
23,CTCATCGC,0.0385
24,CTAACAAA,-0.184
25,TACACACA,-0.125

row,Sequence,PBM E-score
1,AACCAGTA,0.0606
2,AAGTCTTA,-0.204
3,GTAACAAC,-0.151
4,GGCGTGCA,0.00491
5,GCTAACAA,-0.121
6,CCATGCTA,-0.108
7,ATCTGTCG,0.119
8,ATCCCTTA,-0.0685
9,TCTTCAAA,-0.0248
10,GCATAGTA,0.0519
11,AAGACGTG,-0.0469
12,AGATTGAT,0.0251
13,GCCGTCTA,0.0671
14,CATGTTGA,0.114
15,CTCAGTTC,-0.187
16,ATAATGAG,-0.127
17,CACACCTG,-0.176
18,GCCTACCA,-0.102
19,AGGCACGG,0.175
20,AATTCACC,0.128
21,GATATCCC,0.213
22,AAGATGGC,-0.0125
23,ATGATCGA,-0.11
24,ACGGATCC,0.445
25,CAATGTGC,-0.027

row,Sequence,PBM E-score
1,GATATGCA,0.092
2,AGGGTACC,-0.275
3,GCGACATA,0.0178
4,AAGGAGCG,-0.135
5,GACGTTAC,-0.178
6,GTCTGGAA,-0.284
7,CACTTACC,0.126
8,CGGGGAAA,0.246
9,TGCCATAA,0.0031
10,GAAGTAAC,0.125
11,CGATGTTA,-0.0363
12,CCTGTGCG,0.0807
13,CAACTTAA,-0.24
14,AGTAGAAA,0.00335
15,TACCCTAA,-0.214
16,GTGCAACA,-0.167
17,GTGTGATA,0.0691
18,AGGTTTAT,0.222
19,CCCTCGCG,0.102
20,TAGTGCGA,0.00869
21,TAGCTTGA,-0.186
22,GACGAAGA,-0.0729
